Assay results reported in PubChem BioAssay AID686978 (National Center for Advancing Translational Sciences (NCATS), 2013).
Several values for one entry are separate records, joined by “and”; a condition that tells them apart may be missing. Equal values may be shown once. Hit rate of the full screen: of about 420,000 compounds, about 64,000 (15%) were called active. Inconclusive means that the source gave no clear call. Such entries were picked first, then a sample of the others. The call rests on the fitted dose curve; in most records, active means well fitted inhibition curve with a large enough effect; inconclusive means small, poorly fitted or top-dose-only effect; inactive means flat fitted curve, though single readings scatter. No potency is given beside an inconclusive call; the fits are too rough.

Test: qHTS for Inhibitors of human tyrosyl-DNA phosphodiesterase 1 (TDP1): qHTS in cells in absence of CPT; further: nearly all actives have a fitted effect of over 55% in size
Conditions: DT40 Tdp1-/- hTDP1 cells, no CPT, ATP luminescence, 48 h; activity change, negative = growth inhibition: at 46.2 µM (top of the series) unless noted
In short: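 DT40 Tdp1-/-;hTDP1 cells, no CPT (DMSO vehicle only), 400 cells/well; compounds pin-transferred; ≥48 hr, 37 °C; CellTiter-Glo 30 min RT dark, luminescence read.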
On the % scale 0 is the no-effect control and ±100 the full control effect; potency means the concentration at half of the fitted maximal effect; tags describe the fitted curve by direction and shape.

SMILES	Potency	activity change, negative = growth inhibition
CN(CC1CCCN(CCc2ccc(Cl)cc2)C1)C(=O)c1ccco1 (stereo not drawn)	inconclusive [inhibitor, single point]	
COc1cc(NC(=O)CSc2nc3ncccc3o2)cc(OC)c1	inconclusive [inhibitor, single point]	
Cc1cc(C(C)(C)C)ccc1OCC(=O)N/N=C\c1c(C)n(C)n(-c2ccccc2)c1=O	inactive	
Cc1cc(C)c2cc(CN(CCCO)S(=O)(=O)c3ccccc3F)c(=O)[nH]c2c1	inconclusive [inhibitor, partial curve, poor fit]	
Cc1ccccc1Oc1nnc(-c2cccs2)c2ccccc12	inconclusive [inhibitor, single point]	
O=C(OCCSCCOC(=O)C1CC=CCC1)C1CC=CCC1 (stereo not drawn)	inactive	
Cc1ccc(Nc2nc(N)c([N+](=O)[O-])c(NCCO)n2)cc1	inconclusive [inhibitor, single point]	
C(=C\c1ccccc1)/CSc1nnc(-c2ccccn2)n1Cc1ccco1	active: 2.91 µM	
Cc1ccc2oc(=O)c3cc(C(=O)NCCCN4C(C)CCCC4C)sc3c2c1 (stereo not drawn)	inconclusive [inhibitor, single point]	
CC1(C)CC(=O)C/C(=N/NC(=O)c2ccc(-c3ccccc3)cc2)C1	inconclusive [inhibitor, single point]	
CCOCCOc1cccc(C(=O)NC(c2ccccc2)c2ccccc2)c1	inactive	
CCCn1cc(CN2CCC(Cc3cccc(F)c3)(C(=O)OCC)CC2)c(C)n1	inconclusive [inhibitor, single point]	
Cl/C(=C\n1cncn1)c1ccc(Cl)cc1Cl	inconclusive [inhibitor, single point]	
O=C(O)/C(=C\c1ccc(F)cc1)c1ccc(-c2ccccc2)cc1	inactive	
COc1ccc(-c2noc(CSc3nc(N)c(-c4ccccc4)c(=O)[nH]3)n2)cc1	inconclusive [inhibitor, full curve, poor fit]	
O=C1C=C(c2ccc3[nH]ccc3c2)C[C@@H](c2ccc(Cl)cc2)C1	inconclusive [inhibitor, single point]	
Cc1scc(-c2n[nH]c(=S)n2Cc2ccccc2)c1C	inactive	
COc1ccc(-n2nc(N)c(C(N)=O)n2)cc1	inconclusive [inhibitor, single point]	
O=c1[nH]c(CSc2nnc(NCCCN3CCOCC3)s2)nc2cc(Cl)ccc12	inactive	
COc1ccc(C(=O)C[n+]2cc(-c3ccc(OC)cc3)n3c2CCCC3)cc1	active: 4.61 µM and active: 6.51 µM	
O=c1n(S(=O)(=O)c2cccc3cccnc23)c2ccccc2n1S(=O)(=O)c1cccc2cccnc12	inconclusive [inhibitor, partial curve]	
CC(C)COC(=O)C1C(=O)CC(C)(O)C(C(=O)OCC(C)C)C1c1cccnc1 (stereo not drawn)		inconclusive: -30.1% [inhibitor]

SMILES	Potency	activity change, negative = growth inhibition
Cc1cc(NS(=O)(=O)c2ccc(NC(=O)c3ccc([N+](=O)[O-])s3)cc2)nc(C)n1	inactive	
Cc1ccc(N2C(=O)CC(c3ccsc3)C3=C2CC(C)(C)CC3=O)cc1 (stereo not drawn)	inactive	
O=C(NNC(=O)c1ccccc1O)c1ccc(S(=O)(=O)Nc2ccccc2F)cc1	inconclusive [inhibitor, single point]	
O=C(Cc1ccc(S(=O)(=O)N2CCOCC2)s1)Nc1ccc(S(=O)(=O)N2CCCCC2)cc1	inconclusive [inhibitor, single point]	
COCC(=O)Nc1ccc(N2CCOCC2)c(S(=O)(=O)Nc2ccccc2OC)c1		inconclusive: -31.7% [inhibitor]
Cc1ccn2cc(CCNS(=O)(=O)c3ccc4c(c3)CCCC4)nc2c1	inconclusive [inhibitor, single point]	
Cc1ccc(N=C2NC(=O)/C(=C\c3ccco3)S2)cc1	inconclusive [inhibitor, single point]	
Cc1ccc(N2CCN(S(=O)(=O)c3c(C)nc4scc(C)n4c3=O)CC2)c(C)c1	inconclusive [inhibitor, partial curve]	
Cc1ccccc1CNC(=O)c1[nH]c(C(F)(F)F)nc1-c1ccccc1	inconclusive [inhibitor, partial curve]	
CCC[C@@H]1C[C@@]1(CCC)[C@@H](NP(=O)(c1ccccc1)c1ccccc1)c1ccc(C(=O)OC)cc1	active: 16.4 µM	
COc1ccccc1N1CCN(c2ncnc3c2c(-c2ccccc2)cn3-c2cccc(C)c2)CC1	inconclusive [inhibitor, single point]	
COc1cc2c(cc1OC)C(c1ccccc1)N(C(=O)c1cccc(S(C)(=O)=O)c1)CC2 (stereo not drawn)	inconclusive [inhibitor, partial curve, poor fit]	
COc1ccc(C(=O)Nc2ccc(-c3n[nH]c(=S)o3)cc2)cc1OC	inactive	
Cc1cc(C)n(CC(=O)n2c3ccccc3c3ccccc32)n1	inconclusive [inhibitor, single point]	
Cc1ccc(/C=N/N2CCN(Cc3ccc(Cl)cc3)CC2)o1	inconclusive [inhibitor, single point]	
CCCCOc1ccc(C(=O)NCC(=O)NCC(=O)OCC)cc1	inconclusive [inhibitor, single point]	
O=C(NCC(c1cccnc1)N1CCN(c2ccc(F)cc2)CC1)c1cccc(Cl)c1 (stereo not drawn)	active: 10.3 µM	
CCN1CCN(c2ncnc3c2cnn3-c2cc(Cl)ccc2C)CC1	inconclusive [inhibitor, single point]	
CCOC(=O)c1c(S(=O)(=O)NCC(=O)N(C)Cc2ccccc2)c(C)n(C)c1C	inactive	
Cc1ccc(CCNC(=O)C2CCCN(S(=O)(=O)c3c(C)noc3C)C2)cc1 (stereo not drawn)	inconclusive [inhibitor, single point]	
Nc1cc2nc[nH]c2cc1N	inconclusive [inhibitor, partial curve, poor fit]	
